Reference: the supplement of paper PMC3334620
Whole data set: some 33,000 sequences, median “E-score (-0.5 to 0.5)” near -0.04, cut for the highest 2% near 0.36. This is one part of the list.

Molecular target: T1, Hmlalpha2 (UniProt P0CY09)
T1 sequence: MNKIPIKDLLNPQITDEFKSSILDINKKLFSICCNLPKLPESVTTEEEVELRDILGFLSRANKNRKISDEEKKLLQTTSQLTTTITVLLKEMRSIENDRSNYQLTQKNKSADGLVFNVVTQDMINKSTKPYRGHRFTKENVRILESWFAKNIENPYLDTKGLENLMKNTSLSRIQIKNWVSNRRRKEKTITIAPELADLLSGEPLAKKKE
Assay: PBM E-score (8-mer binding enrichment) (E-score (-0.5 to 0.5)); higher = stronger / more preferred TF binding; most listed sequences are background and not binding sites
Conditions: protein concentration: 200 nM; construct: GST-full length
Summary of the method: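 Full-length yeast transcription factors or their DNA-binding domains, GST-tagged and expressed with PURExpress, were applied at about 100-200 nM to universal all-10-mer Agilent arrays. These arrays had been made double-stranded by primer extension on fresh or once-stripped slides. Detection used fluorescent anti-GST, normalisation used masliner, and E-scores for ungapped eight-base words pooled with reverse complements came from the Universal PBM Analysis Suite.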

Sequence | PBM E-score
GATACCCA | -0.00314
GACCCACC | -0.333
AAAGTGAT | -0.126
CACATTAA | 0.183
TAGATCAA | 0.214
CAATCTGG | -0.0495
GCACGATA | 0.154
AAAGCGTA | -0.0673
ACTAAAGC | 0.0551
GCATGTAA | 0.485
AGCCTGAC | -0.197
ACCTCTCT | -0.218
ATCAGGCA | -0.0801
AAACAGCC | -0.0829
ATGATTGG | -0.0819
GCTACGAA | 0.0797
ACTCATCC | 0.00616
CATACCTC | 0.0518
ACGTCTAT | -0.0486
CGTCCGGA | -0.0393
ATTAAGCG | 0.00243
CCTGGGCA | -0.301
CACGTATA | 0.237
GCGGTGAA | -0.238
AGCTATGA | -0.141

Sequence | PBM E-score
AAATCTGA | -0.0012
CATCGGAC | -0.231
TAACCTCA | 0.0864
GGCAAACC | -0.292
AGCGTTCA | -0.22
ACCATCCA | -0.0846
CCATCAAG | -0.254
GGACTCCA | -0.201
AGAAAACG | 0.0424
CCCCATGA | -0.274
CCGACACA | 0.0632
ATTATATA | 0.261
AGGCCGCA | -0.0988
CGATATCA | 0.0216
CACCGTCC | -0.158
GCCGGTGA | -0.149
AATCGCCG | -0.218
ACTGTTCA | -0.0539
TCGCTAAA | 0.0398
CACTCACA | -0.0103
AGGTCCAT | -0.0867
AAGCGACA | 0.0611
CGCTTGAG | -0.247
AACGCAGC | 0.254
AAGGTAGT | -0.0351

Sequence | PBM E-score
AGTAACGA | 0.0802
AGGAACTC | -0.163
GACACATA | 0.26
AGATAAAA | 0.275
AATTTCGT | 0.114
ACGTATGG | 0.0353
ACTGTCTA | 0.194
ACTTCAAG | 0.196
AACAGGGG | -0.0507
GCTTCGCA | -0.196
ATACGATG | 0.19
AGGGCAAG | -0.053
GAGCGAGC | -0.0856
ATGAACAC | 0.3
AAAAATTT | -0.0158
GCAAAGAA | 0.0243
ACGAAAAT | 0.233
CACAGCCC | 0.00326
CAAACCGA | -0.0373
GTGAAGGA | -0.0372
ACCAGAGG | -0.181
ACAATAGG | -0.0369
AATAAAGA | 0.106
AATGCATA | 0.0844
AGCGGTAA | 0.0678

Sequence | PBM E-score
ATAGGCAC | -0.216
ACTATACG | 0.0826
AGTTAGCA | 0.0472
TGTCCCAA | -0.0785
AGCCCGAT | -0.195
ATCGTGGG | -0.0367
CGTATCTC | -0.0211
ATAGTCTG | -0.0131
AGTGCGAG | -0.357
GACTCCTC | -0.169
AGAGGCCA | -0.241
CCGGGATC | -0.0963
TCGTCTAA | -0.0512
GACTGGGA | -0.0286
GACAGGGC | -0.124
ATAGCGAG | 0.00326
CTCCCAAC | -0.252
AGGTCAAA | -0.122
CTCGTCGC | -0.232
ACTCAGCA | 0.0533
TCTCCAGA | -0.21
AAGAGTGA | 0.169
CTACCAAA | -0.0375
GCGTCATA | 0.148
AGAACACT | 0.105

Sequence | PBM E-score
GGTTGCTA | -0.283
ACCTGTGC | -0.128
GTCTTCGA | -0.0391
CGAGTGAG | -0.136
ATAAATCG | -0.0429
AGAAAGTC | -0.1
GAGTCGAC | -0.107
ACATAGTC | 0.313
AGGCTTGG | -0.223
AACCCGCA | -0.0975
GGAATTAA | 0.183
CCGGAAAC | -0.134
GGTCAGAA | -0.161
CATACAAG | 0.0581
ATGTGTTG | 0.39
CTCCGAAC | -0.0663
CCATGAGC | -0.209
ACTCTCAG | -0.154
CGTCGACA | 0.21
ACCCTGCT | -0.269
GACAAGCC | 0.157
AGGTTGGA | -0.155
CTTTCCTA | -0.306
CTGTTGAA | 0.259
ATCGTGTG | 0.313

Sequence | PBM E-score
ACTCAAGG | -0.0982
GTACAAAA | 0.307
TACCCCGA | -0.114
ATTTCACC | 0.0687
CAACGTTC | -0.00889
ATATCCCA | -0.0355
CGTCAATC | 0.0846
CAGTTGTA | 0.138
AGAAGTAG | -0.0478
ATTTTGGC | 0.0639
ACTGGTTA | 0.103
ACTTTAAC | 0.188
ACAGGCCA | -0.0294
ACAAGGGC | 0.133
CCCTAAGG | -0.233
AGTGTAAG | 0.116
AGCGGAGA | -0.216
GATTGCGC | -0.0304
TCAGTCAA | 0.141
CAGGGCGC | -0.0958
ACAGCCAA | -0.0915
GGCGACAA | -0.127
CGCGGAAC | -0.0278
GGGGACCC | -0.369
AGGCGACG | -0.14

Sequence | PBM E-score
AATCTCCT | -0.124
CCCGTGAC | -0.226
ACTATATC | 0.0968
GTCGGATA | -0.0106
CATAGCTA | -0.138
CGAGGCCA | -0.087
ATGGAGAG | -0.115
ACAACAGG | 0.155
GATTTTAA | 0.188
ATGCAAAT | 0.193
ATGAGTGC | -0.172
CTAAAAAA | 0.118
AACCATCA | 0.0303
ATTCATAC | 0.147
GCTCTACA | 0.288
AGTACTAC | 0.237
AGAGAAGC | -0.0779
GGCTGGCA | -0.235
AAAATCAG | 0.108
CAAGGTAA | 0.182
CTTATCAA | 0.0644
CTCTTATC | 0.05
